This note sets out measurements from article PMC12136788.

T1: UNK ZnF1-3 (human, UniProt Q9C0B0 31-174)
T1 sequence: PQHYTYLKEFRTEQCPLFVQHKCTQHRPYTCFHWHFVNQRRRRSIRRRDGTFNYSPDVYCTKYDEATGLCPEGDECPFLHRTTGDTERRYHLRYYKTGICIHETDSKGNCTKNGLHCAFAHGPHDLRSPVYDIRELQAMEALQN

B1: 175938933_175939053_2160_3pUTR_ENSG00000115966_ENST00000264110|human|control|control (ssRNA)
RNA: GGGAGUUCUACAGUCCGACGAUCAAAUGAUAAUACUACUACCGUCACAGUUGAGGGUUAAGGGGUGGUCAAAAGAAAUGGAAGUGGGAAGAAAGAUUCAGUAACACCCCCAUUUAUUAAAACACCAGCAAAUUAAAAGUGAAACAACAGAGGAUUGAGCAUCA
B2: chr7:106416527:106416528:+_ENSMUSG00000055407_ENSMUST00000127492|mus_mus|FALSE|FALSE (ssRNA)
RNA: GGGAGUUCUACAGUCCGACGAUCGCAGGCCCUUGUGAUGCACGGCCACGCCAUGUUAGCCACAAAGCCUUUUUGUGGUCCUAAAUCAAAUCUCCAAUCUCCCUUUAACCCCAACCCAGACCCGCCAAUGUGGUUCCCACCGCUCAACAGAGGAUUGAGCAUCA
B3: chr2:73747301:73747302:-_ENSMUSG00000018770_ENSMUST00000018914|mus_mus|motif|central (ssRNA)
RNA: GGGAGUUCUACAGUCCGACGAUCAUAACCAAUGAUAAGACUGCCAAAGACUGUUCCAAUACCAGCACCAGAACCAGCAACUCCGGCUGUUGCAGCACCUGCACCAAUGAAUUUGGCAGCAGUAUCAAUGUCUCUGCUGAUUACCAACAGAGGAUUGAGCAUCA
B4: chr14:45754706:45754707:-_ENSMUSG00000021830_ENSMUST00000139526|mus_mus|FALSE|FALSE (ssRNA)
RNA: GGGAGUUCUACAGUCCGACGAUCGUAACUAGACGGAAGAUAUGCAGAUCCCACUGUGCUACAGGCUACUACAAGGUUGCUAAUUAUGCAACCUUGGUGACUAAUGACAUUAAAAGAAAGACAAUUCUUUGAUGGAGGAUCCAUCAACAGAGGAUUGAGCAUCA
B5: chr19:58870598:58870599:-_ENSMUSG00000025092_ENSMUST00000066285|mus_mus|FALSE|FALSE (ssRNA)
RNA: GGGAGUUCUACAGUCCGACGAUCUCUUCGAUUAAUAAUGCAUUUUUGACUCCUGUUUAUAUUGGUGCAUGCAAUUCUUUGCUACCCUGGCAAUUAACCAGACCUGGACUCUAAAAGCUAAACUUGGUCUAAGUAACAUUCUAACAACAGAGGAUUGAGCAUCA
B6: 119759185_119759305_4493_3pUTR_ENSMUSG00000025583_ENSMUST00000147781|mouse|control|control (ssRNA)
RNA: GGGAGUUCUACAGUCCGACGAUCAUACCUUGUAGCAGGAGAGGCCUUCCCUCUCUUCUACCCUCUCUCUUCCCCCAAUUGCUCUUAUCCAUUUCCCAGGACUGGCAGCACACUCUGAGAGGACAGUGGGGCUGGGCCAUGGCCCAACAGAGGAUUGAGCAUCA
B7: 43037672_43037792_896_CDS_ENSMUSG00000028454_ENSMUST00000098109|mouse|control|control (ssRNA)
RNA: GGGAGUUCUACAGUCCGACGAUCAGGCACAUGCGAGCGCUGAGGCUGGGCAAAGUCAAACCGCAGAGCGUCUAUCAGUACCAAAACCACCCUGGAGAAGCGGGAAGGCAUCCAGCAAGCCCCAGGCUUUCCAUGACUUCCCCACAACAGAGGAUUGAGCAUCA
B8: chr3:119217614:119217615:+_ENSG00000113845_ENST00000264244|hu_mus|FALSE|FALSE (ssRNA)
RNA: GGGAGUUCUACAGUCCGACGAUCGCUCCGCAAAGGCGGCUGCGGGGAGCGGGCGGCGGCGCGCCCAUGGCGCCCUCCUACCCGCAGAGAGACAGACACCCCAGGGUCGGCGGGCACCGUGGGAGAGGGUGACCUGUACAGCCCCAACAGAGGAUUGAGCAUCA
B9: chr7:151048522:151048523:+_ENSG00000013374_ENST00000566856|hu_mus|hu_hu_hu_mus_True|1_28 (ssRNA)
RNA: GGGAGUUCUACAGUCCGACGAUCCUGUUUCUUAUUUAUUACGAUCUUGAUGUAAUUUUCUUGAAAUCCGAAAGUUUCAGCUAUUUGACACCUCAGGUCUCUACCAGUGAUGUGCAAGCGGGUCUCCAACAAGCUUUUCCUAUCCAACAGAGGAUUGAGCAUCA
B10: 153574287_153574407_148_3pUTR_ENSG00000196504_ENST00000410080|human|control|control (ssRNA)
RNA: GGGAGUUCUACAGUCCGACGAUCGCAGUGGGGGUCUGCCACCUUCACCCUCCCCGCCCGAGUUACGUACGCCCCACAAACCUGAGGCCGCCAGGGGUAGGGUGGAGGGGGCGGGGGUAAGCAGCCUGUAGUGUUAGCGGUGGCCAACAGAGGAUUGAGCAUCA
B11: chr7:135119151:135119152:+_ENSMUSG00000030795_ENSMUST00000128851|mus_mus|FALSE|FALSE (ssRNA)
RNA: GGGAGUUCUACAGUCCGACGAUCACUUUGAAUCCCCAUUGAUAAUGCCACACACUUCAAGAAAAUGCUGUUUUCCCCCAGCUAGGGCUGGGAAAUGUCCUCAGCACAGAUGGGGGUAGGGGAAUUAGUAAUUCUUUUAAAUUACAACAGAGGAUUGAGCAUCA
B12: chr2:42509997:42509998:+_ENSG00000143924_ENST00000318522|hu_mus|hu_hu_hu_mus_True|68_78 (ssRNA)
RNA: GGGAGUUCUACAGUCCGACGAUCUCGCUGAGUCCUCUCCUCAUAAUUAAACAGGACUACUACUGAUGCAAUGAAAUAAACUAUCUCCCCUGUGGGAAGCAGGUAUACAUUCGCUCUACAGUCCUUUCCUCGAUAACCGUAUACCAACAGAGGAUUGAGCAUCA
B13: 141632510_141632630_611_CDS_ENSG00000069849_ENST00000286371|human|control|control (ssRNA)
RNA: GGGAGUUCUACAGUCCGACGAUCAUCAGGAUCAUUCAUACCACUGCAUGCUUGAAGUAAUGAAAUAGGAAACUGACAUGCAACAUAAACUGGACCCUUCUGUUCAAAAAGUGCUCCAUCAGGACAGACUGUGAGGUUCUUCUGCAACAGAGGAUUGAGCAUCA
B14: chrX:15845472:15845473:-_ENSG00000182287_ENST00000329235|hu_hu|FALSE|FALSE (ssRNA)
RNA: GGGAGUUCUACAGUCCGACGAUCCCACAAGAAGUCAUCAACAAGGGAGGAGAGUUAUGUCAGUCCAAUUUCUUCAAGAACACUACGUGGGGUUUCAGCUUCCUCCUGCAGUAGAUCAGCCUGCUCAAUUGCUUUAAGGACAUUCAACAGAGGAUUGAGCAUCA

The list shows a part of the results.

In this assay the target is T1, UNK ZnF1-3. In words: nsRBNS (natural sequence RNA bind-n-seq); RBNS binding buffer (assumed for nsRBNS): 25 mM Tris pH 7.5, 150 mM KCl, 3 mM MgCl2, 0.01% Triton X-100, 500 ug/ml BSA, 20 U/ml SUPERase-In, 4 C; UNK is unkempt and MSI1 is Musashi-1; names of the RNAs are library labels; protein concentration not given here; high values mean tight binding.
In turn, B1 had a binding signal of 2.02 enrichment R.

With B2, the binding signal was 0.831 enrichment R.

Molecule B3 had a binding signal of 1.06 enrichment R.

The molecule B4 gave a binding signal of 1.19 enrichment R.

In turn, B5 gave a binding signal of 0.926 enrichment R.

On to B6, for which the binding signal is 1.05 enrichment R.

Consider B7, for which the binding signal worked out at 0.767 enrichment R.

As to B8, the binding signal is 0.721 enrichment R.

In the case of B9, the binding signal stood at 0.752 enrichment R.

Take B10: the binding signal was 0.609 enrichment R.

As to B11, the binding signal turned out to be 0.824 enrichment R.

The molecule B12 gave a binding signal of 0.719 enrichment R.

In turn, B13 had a binding signal of 1.39 enrichment R.

Consider B14, for which the binding signal was 1.53 enrichment R.
